The subject of one test is HSkMC. The test can be described thus: cytotoxicity call (relative viability < 0.9). As to conditions: 10 µM.
Another test has as its system HepG2. In words: cytotoxicity call (relative viability < 0.9). As to conditions: 10 µM.
In another test the test system is S. aureus RN4220. The test can be described thus: growth inhibition call (relative growth <= 0.2). As to conditions: 50 µM.

The other results are listed elsewhere or left out.

As to `C[C@H](CO)N1C[C@H](C)[C@@H](CN(C)C(=O)C2CC2)OCc2cn(nn2)CCCC1=O`, the cytotoxicity call in the test with HSkMC and with HepG2 was “inactive” in each case. Also, in the test with S. aureus RN4220, the growth inhibition call was “inactive”.
As for `CO[C@@H]1CN(C)C(=O)c2ccc(NS(=O)(=O)CC(F)(F)F)cc2OC[C@@H](C)N(Cc2ccccn2)C[C@H]1C`, the cytotoxicity call with HSkMC and in the test with HepG2 was “inactive” each time. In addition, the growth inhibition call in the test with S. aureus RN4220 was “inactive”.
For `CC(C)C#Cc1ccc2c(c1)O[C@H](CN(C)S(=O)(=O)c1cn(C)cn1)[C@H](C)CN([C@H](C)CO)S2(=O)=O`, the cytotoxicity call in the test on HSkMC and with HepG2 was “inactive” in each case. In the test with S. aureus RN4220, the growth inhibition call is “inactive”.
As for `Cc1ccc(S(=O)(=O)Nc2ccc3c(c2)C(=O)N([C@H](C)CO)C[C@H](C)[C@H](CN(C)CC2CCCCC2)OCCCC[C@@H](C)O3)cc1`, the cytotoxicity call in the test on HSkMC and in the test on HepG2 was “inactive” in each case. Also, the growth inhibition call in the test with S. aureus RN4220 is “inactive”.
`C[C@@H]1CCCCO[C@@H](CN(C)C(=O)Nc2ccccc2)[C@@H](C)CN([C@@H](C)CO)C(=O)c2cc(NS(=O)(=O)c3ccccc3)ccc2O1`: the cytotoxicity call with HSkMC and with HepG2 was “inactive” throughout. Besides, in the test with S. aureus RN4220, the growth inhibition call is “inactive”.
For `COCC(=O)N[C@H]1C=C[C@@H](CC(=O)N2CCCCC2)O[C@H]1CO`, the cytotoxicity call in the test with HSkMC and with HepG2 was “inactive” throughout. Besides, in the test with S. aureus RN4220, the growth inhibition call was “inactive”.
With `C[C@]12CC[C@@H]3[C@]4(C=C[C@@]5(C=C4C(=O)C4CCCCC4)C[C@@H](O)CC[C@]35C)[C@@H]1CC[C@@]2(O)CN1CCC(n2c(=O)[nH]c3ccccc32)CC1`, the cytotoxicity call with HSkMC and with HepG2 was “inactive” throughout. The growth inhibition call in the test with S. aureus RN4220 was “inactive”.
For `C[C@H](CO)N1C[C@H](C)[C@@H](CN(C)C(=O)Nc2ccccc2C(F)(F)F)OCc2ccccc2-c2ccccc2C1=O`, the cytotoxicity call with HSkMC and in the test with HepG2 was “inactive” throughout. In the test with S. aureus RN4220, the growth inhibition call is “inactive”.
Take `C[C@@H]1CN([C@@H](C)CO)C(=O)c2cc(NS(C)(=O)=O)ccc2O[C@@H]1CN(C)C(=O)Nc1ccc(C(F)(F)F)cc1`: in the test on HSkMC, the cytotoxicity call was “inactive”. Also, in the test on HepG2, the cytotoxicity call was “active”. Also, the growth inhibition call in the test on S. aureus RN4220 is “inactive”.
For the compound `C[C@H](CO)N1C[C@H](C)[C@H](CN(C)Cc2ccc(-c3ccccc3)cc2)Oc2ccc(NS(=O)(=O)c3ccc(F)cc3)cc2CC1=O`, the cytotoxicity call in the test with HSkMC and in the test on HepG2 was “active” throughout. For the same compound, in the test with S. aureus RN4220, the growth inhibition call was “inactive”.
For the compound `O=C(N[C@H]1CC[C@H](CCNS(=O)(=O)c2ccc(F)cc2)O[C@H]1CO)C1CC1`, the cytotoxicity call in the test on HSkMC and in the test on HepG2 was “inactive” each time. Besides, the growth inhibition call in the test with S. aureus RN4220 was “inactive”.
Regarding `C=C1C(=O)OC2C1CCC(C)=CCCC1(C)OC21` (stereo not drawn), the cytotoxicity call with HSkMC and with HepG2 was “active” in each case. Further, the growth inhibition call in the test with S. aureus RN4220 is “inactive”.
Take `C[C@@H]1CN([C@@H](C)CO)C(=O)Cc2cc(NC(=O)Cc3cn(C)c4ccccc34)ccc2O[C@H]1CN(C)S(=O)(=O)c1cn(C)cn1`: the cytotoxicity call in the test on HSkMC and with HepG2 was “inactive” throughout. The growth inhibition call with S. aureus RN4220 was “inactive”.
On to `C[C@H]1CN([C@@H](C)CO)C(=O)c2cc(NC(=O)Cc3ccccc3)ccc2O[C@@H]1CN(C)S(=O)(=O)c1cn(C)cn1`, for which the cytotoxicity call in the test on HSkMC and with HepG2 was “inactive” in each case. In the test with S. aureus RN4220, the growth inhibition call is “inactive”.
On to `CC(C)(Sc1cc(C(C)(C)C)c(O)c(C(C)(C)C)c1)Sc1cc(C(C)(C)C)c(O)c(C(C)(C)C)c1`, for which the cytotoxicity call with HSkMC and in the test with HepG2 was “inactive” in each case. Moreover, the growth inhibition call in the test on S. aureus RN4220 was “inactive”.
Take `Cc1ccc(S(=O)(=O)Nc2ccc3c(c2)C(=O)N([C@@H](C)CO)C[C@H](C)[C@@H](CN(C)Cc2ccc(Cl)c(Cl)c2)O3)cc1`: the cytotoxicity call in the test on HSkMC was “active”. The cytotoxicity call in the test with HepG2 was “inactive”. Also, the growth inhibition call with S. aureus RN4220 is “inactive”.
With `CC(C)c1cccc(NC(=O)C[C@H]2CC[C@H]3[C@@H](COc4ccc(NC(=O)c5ccc(C#N)cc5)cc4C(=O)N3C)O2)c1`, the cytotoxicity call with HSkMC and in the test on HepG2 was “inactive” throughout. Moreover, the growth inhibition call with S. aureus RN4220 was “inactive”.
Regarding `C[C@H]1CCCCO[C@H](CN(C)Cc2ccncc2)[C@@H](C)CN([C@@H](C)CO)C(=O)c2cc(NC(=O)Nc3ccccc3)ccc2O1`, the cytotoxicity call in the test with HSkMC and with HepG2 was “inactive” each time. Besides, the growth inhibition call in the test on S. aureus RN4220 was “inactive”.
`C[C@H]1CN([C@@H](C)CO)C(=O)Cc2cc(NC(=O)Nc3cccc4ccccc34)ccc2O[C@H]1CN(C)Cc1ccc(-c2ccccc2)cc1`: the cytotoxicity call with HSkMC and in the test with HepG2 was “inactive” each time. For the same compound, the growth inhibition call in the test on S. aureus RN4220 was “inactive”.
In the case of `C[C@@H]1CCCCO[C@H](CN(C)C(=O)Nc2ccc(F)cc2)[C@@H](C)CN([C@H](C)CO)C(=O)c2cc(NS(=O)(=O)c3ccc(Cl)cc3)ccc2O1`, the cytotoxicity call with HSkMC and in the test with HepG2 was “inactive” throughout. In the test on S. aureus RN4220, the growth inhibition call was “inactive”.
As for `O=C(C[C@H]1C[C@H]2c3cc(NC(=O)Cc4ccncc4)ccc3O[C@H]2[C@H](CO)O1)NCc1cc(F)ccc1F`, the cytotoxicity call in the test on HSkMC (human skeletal muscle cells) and with HepG2 was “inactive” each time. Besides, in the test with S. aureus RN4220, the growth inhibition call is “inactive”.
As for `CCCCC[C@@H](C[C@@H](CC(=O)O)O[C@H]1O[C@@H](CO)[C@@H](O[C@H]2O[C@@H](CO)[C@@H](O)[C@@H](O)[C@@H]2O)[C@@H](O)[C@@H]1O)OC(=O)C[C@H](O)C[C@H](CCCCC)O[C@H]1O[C@@H](CO)[C@@H](O)[C@@H](O)[C@@H]1O`, the cytotoxicity call with HSkMC and with HepG2 was “inactive” each time. For the same compound, the growth inhibition call with S. aureus RN4220 was “inactive”.
On to `NCc1ccno1`, for which the cytotoxicity call with HSkMC and in the test with HepG2 was “inactive” each time. The growth inhibition call with S. aureus RN4220 was “inactive”.
Consider `C[C@H](CO)N1C[C@H](C)[C@@H](CN(C)S(=O)(=O)c2cccs2)OCCCC[C@H](C)Oc2ccc(NC(=O)NC3CCCCC3)cc2C1=O`, for which the cytotoxicity call in the test with HSkMC and in the test on HepG2 was “inactive” each time. Further, in the test with S. aureus RN4220, the growth inhibition call is “inactive”.
Take `CN1C(=O)C[C@@H]2[C@@H]1CCN2C(=O)c1ccc[nH]1`: the cytotoxicity call in the test with HSkMC and with HepG2 was “inactive” throughout. In addition, the growth inhibition call in the test on S. aureus RN4220 was “inactive”.
As for `CC(C)CNC(=O)[C@@]1(c2ccc([N+](=O)[O-])cc2)CC(=O)N(CC23CC4CC(CC(C4)C2)C3)[C@@H]1c1ccc(CO)cc1`, the cytotoxicity call with HSkMC and in the test with HepG2 was “inactive” each time. Moreover, in the test with S. aureus RN4220, the growth inhibition call was “inactive”.

For the origin of these results see the antibiotic and cytotoxicity screens of Wong et al. (2023).
